# PubChem BioAssay AID463173 (ICCB-Longwood Screening Facility, Harvard Medical School, 2010)
# The campaign covered roughly 52,000 compounds. About 1,700 (3.3%) were called active. No stated cut-off is given here; in the data, active means survival mostly below about 52% (no sharp cut-off); inactive means mostly above about 56%. The list shows a part of the results.
# Test system: Wild type
# Experiment: S. aureus survival, RN4220 and DeltatarO strains – OD600, teichoic acid synthesis inhibitors, primary screen (AID 463173)
# Settings: S. aureus RN4220 wild type/DeltatarO growth, OD600, 18 h, active compounds read low, screened at 18.75 µg/mL (by protocol)
row,Compound,survival
1,O=C(Nc1ccc(OC(F)(F)F)cc1)c1cc(-c2ccc(Cl)cc2)on1,inactive: 105%
2,Cc1occc1C(=O)NC(C)C12CC3CC(CC(C3)C1)C2 (stereo not drawn),inactive: 101%
3,Cc1ccc(-n2c3nc(=O)n(C)c(=O)c-3cc3ccccc32)c(C)c1,inactive: 121%
4,CCC(=O)N1CCc2cc(Br)cc(S(=O)(=O)N3CCCC(C(=O)NCc4ccc(C)cc4)C3)c21 (stereo not drawn),inactive: 97%
5,COc1ccc(/C=C/c2nc(C#N)c(N3CCCCC3)o2)cc1OC,inactive: 87%
6,COc1cccc2cc(-c3nc4sc5c(c4c(=O)[nH]3)CCC(C(C)(C)C)C5)c(=O)oc12 (stereo not drawn),inactive: 95%
7,COc1ccc(S(=O)(=O)c2c(Nc3cccc(Cl)c3)sc(C(=O)c3ccccc3)c2N)cc1,inactive: 91%
8,Cc1cc2c(cc1S(=O)(=O)NCc1ccc(F)cc1)OCCN2C,inactive: 80%
9,CCCCN(Cc1cc2cc(C)ccc2[nH]c1=O)C(=O)c1cccc(Cl)c1,inactive: 93%
10,CCc1ccc(NC(=O)Cn2ncn3c(cc4ccccc43)c2=O)cc1,inactive: 131%
11,Cc1ccc2c(=O)cc(C(=O)Nc3c(C)cccc3C)oc2c1,inactive: 87%
12,CC1CCN(S(=O)(=O)c2ccc3c(ccn3CC(=O)NCc3ccccc3F)c2)CC1,inactive: 53%
13,Cc1ccc(C)c(NC(=O)CN2CCN(C3CCCCC3)C(=O)C2=O)c1,inactive: 78%
14,COc1cccc(CNC(=O)c2ccc3c(c2)nc2n3CCOC2)c1OC,inactive: 55%
15,CCn1cc(C(=O)NCCc2ccc(OC)c(OC)c2)c(=O)c2cc(S(=O)(=O)N3CCOCC3)ccc21,inactive: 74%
16,Cc1ccc(C(=O)Nc2nnc(S(=O)(=O)N(C)Cc3ccco3)s2)cc1,inactive: 51%
17,CCc1nc2c(cnn2-c2ccc(C)cc2)c(=O)n1-c1ccc(C)cc1,active: 18%
18,O=C(Nc1cccc(C(F)(F)F)c1)c1cc(-c2ccc(Cl)cc2)on1,inactive: 83%
19,Cc1ccc(-c2noc(C(C)NC(=O)c3ccco3)n2)cc1 (stereo not drawn),inactive: 86%
20,COc1ccc(S(=O)(=O)c2c(SC)nn(CC(=O)Nc3ccc(C)c(Cl)c3)c2N)cc1,inactive: 88%
21,COc1ccc2c(CNC3CCCC3)c(C(=O)O)n(Cc3ccccc3C)c2c1,inactive: 92%
22,CCc1nn2c(=O)cc(COC(=O)c3cccc(NC(=O)c4ccccc4C)c3)nc2s1,inactive: 91%

row,Compound,survival
1,CC(C)(C)C1CCc2nc(NC(=O)COc3ccccc3[N+](=O)[O-])sc2C1 (stereo not drawn),inactive: 119%
2,COc1ccccc1CNCC(=O)NCc1ccc(C)cc1,inactive: 105%
3,COCCCNC(=O)CSc1nc2cc3c(cc2c(=O)n1CCCCCC(=O)NCCc1ccc(OC)c(OC)c1)OCO3,inactive: 63%
4,O=C(NCc1ccc2c(c1)OCO2)c1ccc(S(=O)(=O)N2CCCC2)cc1,inactive: 100%
5,O=C(NCc1ccc(F)cc1)c1ccc2c(c1)N(Cc1c(F)cccc1Cl)C(=O)CS2,inactive: 65%
6,Cc1cc(C)c2c(=O)cc(C(=O)Nc3sc4c(c3C#N)CCCC4)oc2c1,inactive: 32%
7,CC1=C(c2ccc(C)cc2)S(=O)(=O)N(Cc2ccc(C(=O)NCc3ccccc3)cc2)C1=O,inactive: 81%
8,Cc1ccccc1NC(=O)CN1C(=O)C2(SCC(=O)N2c2ccc(F)cc2)c2ccccc21 (stereo not drawn),inactive: 71%
9,O=C(Nc1cc(C(F)(F)F)ccc1Cl)c1noc2c1CCCCC2,inactive: 83%
10,COc1ccc2c(c1)c(CC(=O)Nc1cccc(F)c1C)c(C)n2C(=O)c1ccc(Cl)cc1,inactive: 152%
11,O=C(Nc1ccc(F)c(F)c1)c1cc(S(=O)(=O)N2CCc3ccccc32)ccc1F,inactive: 72%
12,COc1cccc(-n2ccn(CC(=O)Nc3ccccc3F)c(=O)c2=O)c1,inactive: 83%
13,Cc1ccc(CNS(=O)(=O)c2cc(C(=O)Nc3ccc(C(C)C)cc3)ccc2F)cc1,inactive: 59%
14,COc1ccc(C2=C(C)C(N3CCC(C(=O)NCc4ccco4)CC3)=NS2(=O)=O)cc1,inactive: 56%
15,CCc1ccccc1NC(=O)Cn1cc(C(=O)c2ccc(Cl)cc2)c(=O)c2ccc(C)nc21,inactive: 71%
16,CCN(CC)c1ccc(NC(=O)c2ccccc2F)cc1,inactive: 115%
17,Cc1ccc(CNC(=O)CSCc2nc(-c3ccc(Cl)cc3)oc2C)cc1,inactive: 88%
18,COc1cccc(-c2ccnc3c(-c4ccccc4)c(C)nn23)c1,inactive: 58%
19,COc1ccc(N2C(N)=C(C#N)C(c3ccc(O)c(OC)c3)C3=C2CCCC3=O)cc1 (stereo not drawn),inactive: 89%
20,CCOC(=O)c1[nH]c2ccccc2c1NC(=O)c1cc(OC)cc(OC)c1,inactive: 62%
21,COc1ccc(-c2cc(C(=O)NCCc3ccc(Cl)cc3)[nH]n2)cc1,inactive: 71%
22,Cc1ccccc1-c1nc2c3c(-c4ccccc4)c(-c4ccccc4)oc3ncn2n1,inactive: 77%

row,Compound,survival
1,Cc1cccc(N2CCN(C(=O)COCc3cc(-c4ccc5c(c4)OCO5)on3)CC2)c1C,inactive: 78%
2,CCOc1ccc(NC(=O)N2CCC(CN3CCC(C)CC3)CC2)cc1,inactive: 127%
3,COc1ccc(-c2cc(C(=O)Nc3cccc(C(C)=O)c3)no2)cc1OC,inactive: 78%
4,COC(=O)c1ccccc1NC(=O)COCc1cc(-c2cccs2)on1,inactive: 88%
5,Cc1ccc(CN(C(=O)c2ccc(F)cc2)c2ccccn2)o1,inactive: 81%
6,Cc1ccc(CNc2nc3c(c(=O)n(C)c(=O)n3C)n2Cc2ccc(Cl)cc2)cc1,inactive: 71%
7,CCOc1ccc2nc(Cl)c(CN(Cc3ccco3)C(=O)N(C)C)cc2c1,inactive: 109%
8,CCn1c(=O)n(-c2ccc(F)c(Cl)c2)c(=O)c2sc3ccccc3c21,inactive: 90%
9,Nc1nonc1C(=O)N1CCCC1,inactive: 108%
10,CN(C)c1ccc(NC(=O)CSc2nc(-c3ccco3)cc(C(F)(F)F)n2)cc1,inactive: 79%
11,O=C(COc1ccccc1Cl)N(Cc1ccco1)Cc1ccco1,inactive: 81%
12,Cc1ccccc1C(=O)Oc1cc(-c2ccc3c(c2)OCO3)cc(=O)c2c(C)oc(C)c12,inactive: 107%
13,O=C(NCc1ccc(F)cc1)C1CCN(S(=O)(=O)c2ccc3c(c2)CCCN3C(=O)C2CCC2)CC1,inactive: 65%
14,CCOc1cc(CNC(=O)c2ccc3c(c2)nc2n3CCCCC2)ccc1OC,inactive: 117%
15,Cc1ccc(Cl)cc1NC(=O)c1cc2c(=O)n3cccc(C)c3nc2n1C,inactive: 81%
16,Cc1ccc(S(=O)(=O)c2cnc(SCC(=O)Nc3ccccc3C(F)(F)F)[nH]c2=O)cc1C,inactive: 81%
17,O=C(NCc1ccc(F)cc1)c1cnc(N2CCOCC2)c2ccccc12,inactive: 74%
18,Cc1cc(C)cc(NC(=O)C2CCCN(c3cnccn3)C2)c1 (stereo not drawn),inactive: 84%
19,CC1CCN(CCCNC(=O)CN2C(=O)CSc3ccc(S(=O)(=O)N4CCC(C)CC4)cc32)CC1,inactive: 78%
20,COc1ccc(-n2c(=O)c3c4c(sc3n(CC(=O)N3CCCCC3C)c2=O)CCC4)c(OC)c1 (stereo not drawn),inactive: 79%
21,Cc1ccc(N2CCN(C(=O)c3ccc(Nc4nc5ccccc5n5nnnc45)cc3)CC2)c(C)c1,inactive: 94%
22,COc1ccccc1N1CCN(S(=O)(=O)c2c(C)sc3ncn(CC(=O)Nc4ccc(C(C)C)cc4)c(=O)c23)CC1,inactive: 90%

row,Compound,survival
1,COc1ccc(Cl)cc1NC(=O)CSc1nc2c([nH]c3ccccc32)c(=O)n1-c1ccccc1,inactive: 72%
2,Cc1cccc(Cn2c(=O)n(CCCCC(=O)NCc3ccc4c(c3)OCO4)c(=O)c3ccccc32)c1,inactive: 91%
3,Cc1ccccc1C(=O)NC1CCN(CC(=O)NC(C)(C)C)CC1,inactive: 100%
4,O=C(NC1CCCC1)c1cnn(-c2ccc(F)cc2F)c1C1CCNCC1,inactive: 22%
5,Cc1ccc(C2=NC(c3ccc(F)cc3)=Nc3ccc(C)cc3N2)cc1,inactive: 79%
6,S=C(Nc1ccccc1)N1CCOCC1,inactive: 109%
7,CCSc1nnc2c(n1)OC(c1ccc(OC)cc1OC)N(C(C)=O)c1ccccc1-2 (stereo not drawn),inactive: 78%
8,CCN(CC)CCNC(=O)CN1C(=O)c2cccnc2Oc2ccc(C)cc21,inactive: 74%
9,COc1ccc(CCNC(=O)Cn2c(=O)n(-c3ccc(OC)c(OC)c3)c(=O)c3ccccc32)cc1OC,inactive: 95%
10,COc1ccccc1OCCCCn1c(C2CC(=O)N(c3ccccc3Cl)C2)nc2ccccc21 (stereo not drawn),inactive: 85%
11,Cc1ccc(NC(=O)/C(C#N)=C/c2ccccc2Cl)cc1C,inactive: 63%
12,CN(Cc1ccccc1)Cc1c(O)ccc2c(=O)c(-c3ccccc3)c(C(F)(F)F)oc12,inactive: 130%
13,Cc1ccc(NC(=O)CN2c3ccccc3S(=O)(=O)c3ccccc32)cc1F,inactive: 51%
14,CCN(C(=O)c1sc2cc(OC)ccc2c1Cl)c1ccccc1,active: -9%
15,CC(C)NC(=O)COc1ccc(S(=O)(=O)N2CCCC2)cc1,inactive: 94%
16,Cn1cc(C(=O)O)c(=O)c2ccccc21,inactive: 101%
17,Cc1nc(-c2ccc(S(=O)(=O)N3CCN(c4cccc(Cl)c4)CC3)cc2)co1,inactive: 65%
18,CC(=O)c1cccc(NC(=O)c2sc(-n3nc(C)c(CCC(C)C)c3C)nc2C)c1,inactive: 94%
19,COc1cc(NC(=O)Cn2c(=O)n(CC(=O)NCCc3ccc(OC)c(OC)c3)c(=O)c3sccc32)cc(OC)c1,inactive: 88%
20,N#Cc1ccccc1NC(=O)c1cccs1,inactive: 102%
21,COc1cccc(Nc2sc(C(=O)c3ccc4c(c3)OCO4)c(N)c2S(=O)(=O)c2ccccc2)c1,inactive: 85%
22,COc1ccc(-n2nnnc2C2CCN(S(=O)(=O)c3ccc(F)cc3Cl)CC2)cc1,inactive: 85%
